# Measurements from PubChem BioAssay AID624417 (National Center for Advancing Translational Sciences (NCATS), 2012).
# In all, about 410,000 compounds went through this assay and about 6,400 (1.6%) were called active. This list was built around the results that the source calls inconclusive (neither active nor inactive); the mix of calls is not that of the screen. Calls come from the whole dose curve; as a rule, active = well fitted inhibition curve with a large enough effect; inconclusive = small, poorly fitted or top-dose-only effect; inactive = no such curve, though single readings can be large or run the other way. Potencies of inconclusive entries are left out as doubtful fits.
# Molecular target: Glucagon-like peptide 1 receptor (Homo sapiens) (UniProt P43220)
# Assay: qHTS of GLP-1 Receptor Inverse Agonists (Inhibition Mode); note: nearly all actives have a fitted effect of over 55% in size
# Conditions: HEK293 GLP-1R CRE-luciferase, luminescence, 24 h, GLP-1R form is constitutively active; activity change, negative = inhibition: at 38.3 µM (top of the series) unless noted
# Method in brief: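 Stable HEK293 clone (constitutively active GLP-1R + cAMP-response luciferase); 200 cells/uL plated, 12 h pre-culture, compound 24 hr, 37 deg C/5% CO2; detection reagent 12 min RT; luminescence.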
# % is set by controls: 0 for no effect and ±100 for the full control effect; potency is the fitted concentration of half-maximal effect; tags give direction and shape of the fitted curve.
# UniProt P43220, sequence (P43220 whole entry, looked up): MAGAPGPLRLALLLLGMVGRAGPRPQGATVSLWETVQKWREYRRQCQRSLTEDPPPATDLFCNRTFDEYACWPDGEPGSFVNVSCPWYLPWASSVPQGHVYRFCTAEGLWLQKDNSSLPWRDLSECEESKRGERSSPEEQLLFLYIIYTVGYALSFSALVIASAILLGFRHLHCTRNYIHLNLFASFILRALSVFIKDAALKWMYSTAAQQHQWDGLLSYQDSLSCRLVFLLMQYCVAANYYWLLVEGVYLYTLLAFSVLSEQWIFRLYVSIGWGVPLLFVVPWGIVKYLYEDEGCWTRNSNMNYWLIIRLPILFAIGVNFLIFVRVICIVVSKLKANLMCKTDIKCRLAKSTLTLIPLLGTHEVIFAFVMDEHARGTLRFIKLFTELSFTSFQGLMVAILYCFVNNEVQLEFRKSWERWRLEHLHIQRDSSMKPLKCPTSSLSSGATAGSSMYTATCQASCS
SMILES,Potency,"activity change, negative = inhibition"
CC(=O)Nc1sc2c(c1C(c1cccc(Cl)c1)N1CCN(CCO)CC1)CCCC2 (stereo not given),"inconclusive [inhibitor, partial curve, poor fit]",–
O=c1c2c3c(sc2nnn1Cc1ccc(F)cc1)CCCC3,"inconclusive [inhibitor, single point]",–
O=C(Nc1cnn(Cc2ccc(Cl)cc2)c1)c1cccs1,"inconclusive [inhibitor, single point]",–
Cc1cc(NC(=O)c2ccccc2[N+](=O)[O-])ccc1Br,"inconclusive [inhibitor, single point]",–
CSc1ccc(NC(=O)NCCCN2CCN(c3ccccc3F)CC2)cc1,"inconclusive [inhibitor, partial curve, poor fit]",–
CCn1c(=O)cc(SCC(=O)Nc2cc(Cl)ccc2OC)c2ccccc21,–,inactive: -3.36%
COc1ccc(-c2ocnc2C(=O)Nc2ccccc2N2CCCCC2)cc1,"inconclusive [inhibitor, partial curve, poor fit]",–
COC(=O)[C@@]12C[C@@H](CC(=O)NCCCCc3ccccc3)C(=O)N(CCc3ccc(OC)c(OC)c3)C1=CCC(C)(C)C2,"inconclusive [inhibitor, single point]",–
CC(O)(c1ccc(F)c(F)c1)c1nc(-c2cccc3cccnc23)cs1 (stereo not given),"inconclusive [inhibitor, single point]",–
CCNc1nc(CSc2ccccc2)nc2sc(C)c(C)c12,"inconclusive [inhibitor, partial curve, poor fit]",–
Cc1cccc(NC(=S)NC(=O)c2cccs2)n1,active: 10 µM,–
COc1ccc(NC(=O)C2(C)CCN2C(=O)c2ccccc2CCc2ccccc2)cc1OC (stereo not given),"inconclusive [inhibitor, partial curve]",–
COc1ccc([C@H]2C[C@H](n3cc(-c4ccc(F)cc4)nn3)[C@@H](O)CN2C(=O)C2CCCCC2)cc1,"inconclusive [inhibitor, partial curve, poor fit]",–
O=C(Nc1cccc(O)c1)C(=O)Nc1ccccn1,"inconclusive [inhibitor, single point]",–
CCOc1ccc(-n2c(C)nc3cc(C(=O)NCc4ccc(C)cc4)ccc32)cc1,"inconclusive [inhibitor, single point]",–
COc1ccc(-n2ccnc(NCc3cccs3)c2=O)cc1,–,inactive: 3.66%
CN(C)C(CNC(=O)c1cc(S(=O)(=O)N(C)c2ccc(F)cc2)ccc1Cl)c1ccco1 (stereo not given),"inconclusive [inhibitor, single point]",–
Cc1noc(C)c1COc1cccc(C(=O)Nc2ccc3c(c2)OCO3)c1,"inconclusive [inhibitor, partial curve]",–
CCOc1ccc(NC(=O)Nc2ccc3nsnc3c2)cc1,"inconclusive [inhibitor, single point]",–
CCOC(=O)N1CCN(S(=O)(=O)N2CCCC(C(=O)NCCc3ccccc3)C2)CC1 (stereo not given),"inconclusive [inhibitor, single point]",–

SMILES,Potency,"activity change, negative = inhibition"
O=[N+]([O-])c1ccc(CNc2cccc(Cl)c2)s1,"inconclusive [inhibitor, partial curve, poor fit]",–
O=C(c1cc2c(s1)CCCC2)N1CCN(S(=O)(=O)c2ccccc2C(F)(F)F)CC1,active: 10 µM,–
CCC(=O)N1CCCc2cc(S(=O)(=O)N3CCN(c4ccccc4F)CC3)ccc21,"inconclusive [inhibitor, single point]",–
CCCCn1nnnc1SCC(=O)Nc1ccc(N(C)C)cc1,"inconclusive [inhibitor, single point]",–
CCOc1ccc(OCC)c(NC(=O)c2cnn(-c3ccc(F)cc3)c2C2CCN(C(=O)OC(C)(C)C)CC2)c1,–,inactive: 2.83%
CCn1cnc2scc(-c3ccc(C)c(C)c3)c2c1=O,"inconclusive [inhibitor, single point]",–
COC(=O)c1cc2ccccc2n1Cc1ccc(Cl)nc1,"inconclusive [inhibitor, partial curve, poor fit]",–
CCCNC(=O)Cn1ncc2c3ccccc3n(CCC)c2c1=O,–,inactive: 4.84%
c1ccc2oc(Cc3ccc(Cc4nc5ccccc5o4)cc3)nc2c1,"inconclusive [inhibitor, partial curve, poor fit]",–
Cc1cc(C)c(S(=O)(=O)/N=C2\C=C(Nc3ccc(C(=O)O)cc3)C(=O)c3ccccc32)c(C)c1,"inconclusive [inhibitor, single point]",–
COc1cccc(-c2nn(C)c3sc(C(=O)NCCc4cccc(C)c4)cc23)c1,"inconclusive [inhibitor, partial curve, poor fit]",–
N#Cc1c(Nc2ccc(F)cc2)sc(C(=O)c2ccccc2)c1N,"inconclusive [inhibitor, single point]",–
Cc1ccc(C(NC(=O)CN2C(=O)NC3(CCCC3)C2=O)c2ccccc2)cc1 (stereo not given),"inconclusive [inhibitor, single point]",–
CCOc1ccc(CCNC(=O)Cn2ccc3cc(S(=O)(=O)N4CCCC4)ccc32)cc1,"inconclusive [inhibitor, single point]",–
O=C(c1cccs1)N1CCC(c2nc3c(nnn3Cc3ccccc3Cl)c(=O)[nH]2)CC1,–,inactive: 44.9%
COc1cc(CNCCc2ccccc2)ccc1OCC(=O)NC(C)(C)C,"inconclusive [inhibitor, single point]",–
COc1ccc(CNC(=O)Cc2ccc(-c3ccccc3)cc2)cc1OC,"inconclusive [inhibitor, partial curve, poor fit]",–
CC(C)OC(=O)c1c(NS(=O)(=O)c2ccccc2)sc2c1CCCC2,"inconclusive [inhibitor, partial curve, poor fit]",–
O=c1[nH]c(=O)n(C(c2ccccc2)(c2ccccc2)c2ccccc2)cc1N(CCO)CCO,active: 10 µM,–
C=CCO/N=C(/C)c1c(O)c(CC)c(-c2ccccc2)n(-c2ccccc2)c1=O,"inconclusive [inhibitor, single point]",–
